From PubChem BioAssay (NCI)
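Dose response: 5 concentrations. Exposure: 48 h. Format: 96-well plates. Endpoint: linear interpolation; highest concentration if not reached. At the GI50, growth is halved. TGI marks complete inhibition of growth.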

The compounds below were run on NCI-H322M lung (assay: NCI tumour cell line growth inhibition, 48 h).

Compound | GI50 [µM] | TGI [µM]
CC(C)(C)c1cc(-c2cc(-c3ccccc3)[nH]c(=O)c2C#N)cc(C(C)(C)C)c1 | 3.58 | 22.1
O=C1CCC(N2C(=O)c3cccc(NCCOCCOCCOCCC(=O)NCCCC(=O)NC(c4ccc5c(c4)OCO5)c4cc(Cl)c5cccnc5c4O)c3C2=O)C(=O)C1 (stereo unspecified) | 8.23 | > 99
COC(=O)C(Cc1ccc(O)c(O)c1)NC(=O)C(CSC/C=C(\C)CCCC(C)CCCC(C)CCCC(C)C)NC(C)=O (stereo unspecified) | 34.1 | > 100
